# Out of some 310,000 compounds screened, about 14,000 (4.5%) showed an effect of 50% or more. The effect is printed as a negative number. Some of the results follow.
# Biological target: human ether-à-go-go-related gene (hERG) potassium channel (human, UniProt Q12809)
# Test: primary screen, population patch clamp on CHO cells stably expressing hERG
# 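Note: peak tail current of the secondary pulse compared with the same well before compound.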
# Sequence of human ether-à-go-go-related gene (hERG) potassium channel (Q12809 whole entry, looked up): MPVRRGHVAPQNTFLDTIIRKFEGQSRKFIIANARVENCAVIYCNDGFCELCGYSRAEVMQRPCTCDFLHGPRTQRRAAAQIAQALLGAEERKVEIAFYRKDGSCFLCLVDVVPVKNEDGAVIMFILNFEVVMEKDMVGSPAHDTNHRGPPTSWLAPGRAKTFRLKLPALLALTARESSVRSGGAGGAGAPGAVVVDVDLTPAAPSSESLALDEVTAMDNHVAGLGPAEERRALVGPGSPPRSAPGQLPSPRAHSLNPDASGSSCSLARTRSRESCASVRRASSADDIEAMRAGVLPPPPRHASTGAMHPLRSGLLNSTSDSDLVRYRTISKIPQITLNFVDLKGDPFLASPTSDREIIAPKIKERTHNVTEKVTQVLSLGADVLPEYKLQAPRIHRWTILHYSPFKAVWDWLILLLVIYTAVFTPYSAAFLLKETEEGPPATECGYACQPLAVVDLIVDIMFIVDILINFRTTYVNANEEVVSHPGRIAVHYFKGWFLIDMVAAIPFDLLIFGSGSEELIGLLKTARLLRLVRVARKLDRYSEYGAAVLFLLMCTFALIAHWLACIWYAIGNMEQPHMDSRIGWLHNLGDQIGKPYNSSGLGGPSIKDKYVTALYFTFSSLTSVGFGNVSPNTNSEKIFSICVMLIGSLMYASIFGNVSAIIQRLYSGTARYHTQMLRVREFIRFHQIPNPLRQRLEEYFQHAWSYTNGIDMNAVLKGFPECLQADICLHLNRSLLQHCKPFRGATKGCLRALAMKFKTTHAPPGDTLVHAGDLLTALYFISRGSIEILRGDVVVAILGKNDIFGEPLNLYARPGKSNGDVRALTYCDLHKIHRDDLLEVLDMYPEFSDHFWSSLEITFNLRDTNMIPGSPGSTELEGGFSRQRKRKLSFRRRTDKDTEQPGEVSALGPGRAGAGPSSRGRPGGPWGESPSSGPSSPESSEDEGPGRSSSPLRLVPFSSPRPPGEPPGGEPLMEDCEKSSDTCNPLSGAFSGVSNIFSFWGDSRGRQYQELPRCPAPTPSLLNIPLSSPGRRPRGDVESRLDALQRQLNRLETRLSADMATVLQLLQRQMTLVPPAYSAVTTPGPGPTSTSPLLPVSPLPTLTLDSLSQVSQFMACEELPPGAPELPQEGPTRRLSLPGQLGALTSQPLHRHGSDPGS
row,Compound,"hERG current change (%, negative = inhibition) at 10uM"
1,Nc1cc(C(=O)N2CCCC2)cc(C(=O)N2CCCC2)c1,11.9%
2,N=c1c(C(=O)NCC2CCCO2)cc2c(=O)n3ccccc3nc2n1C1CCCCC1 (centres unmarked),-77.3%
3,CC(=O)c1c(C)nc(-c2ccc(OCC(=O)Nc3ccc(F)cc3)cc2)n1O,-5.61%
4,CN(C)C(=O)COC(=O)c1cccc(S(=O)(=O)Nc2ccc(OCc3ccccc3)cc2)c1,7.14%
5,C=CCSc1nc2[nH]ncc2c(=O)[nH]1,10.6%
6,COc1ccc(NC(=O)CN(C)CC(=O)Nc2sc3c(c2C#N)CCC3)cc1,0.0459%
7,COc1ccccc1N1CC(O)=C(c2nc3ccccc3c(=O)[nH]2)C1=N,-29.9%
8,O=C(Nc1ccccc1)c1cccnc1N1CCCC1,-13.5%
9,CCN(CCCNC(=O)C1CCC(=O)N1C(C)C)c1cccc(C)c1 (centres unmarked),-13.5%
10,CCCN(CCC)C(=O)CP(=O)(c1ccccc1)c1ccccc1,-6.96%
11,COCCCN1C(=O)C(=O)/C(=C(/O)c2ccc(OC)cc2)C1c1ccc(O)c(OC)c1 (centres unmarked),19.2%
12,Cc1ccc(S(=O)(=O)N2CCN(c3c([N+](=O)[O-])cc(C(F)(F)F)cc3[N+](=O)[O-])CC2)cc1,1.54%
13,COc1ccc(Nc2cc(C)nc3ccc(OC)cc23)cc1,-52.3%
14,COc1ccc(-c2nn(-c3ccccc3)cc2/C=N/NC(=O)c2ccc(Br)o2)cc1,-0.138%
15,C=CCn1c(=S)[nH]c2cc(C(=O)Nc3ccc(OC)c(OC)c3)ccc2c1=O,19.7%
16,N#Cc1c(NC(=O)/C=C/C(=O)O)sc2c1CCN(Cc1ccccc1)C2,6.58%
17,Nc1n[nH]c(N)c1N=Nc1ccc(Cl)cc1Cl,19.1%
18,Cc1ccc(S(=O)(=O)N2CCOCC2)cc1C(=O)NC1CCCCC1,6.61%
19,N#Cc1ccc(-c2ccc(F)cc2)nc1Oc1ccccc1,1.49%
20,O=[N+]([O-])c1ccc2c(c1)nc1n2CCSC1,-19.2%
21,COC(=O)[C@H](Cc1c[nH]c2ccccc12)NC(=O)NCc1ccc(OC)c(OC)c1,8.51%
22,CN(C)c1ccc(/C=N/NC(=O)C(=O)/C=C2\NC3(CCCC3)Cc3ccccc32)cc1,20.3%
23,Nc1ncc2[nH]cnc2n1.O=[N+]([O-])O,9.53%
24,CCN(C(=O)c1sc(N)c(C#N)c1C)C1CCCCC1,9.21%
25,Cc1cc(OCC(=O)N(Cc2ccco2)c2c(N)n(Cc3ccccc3)c(=O)[nH]c2=O)ccc1Cl,10.8%
26,CC(=O)Nc1ccc(NC(=O)c2cccc(S(=O)(=O)N(C)C3CCCCC3)c2)cc1,6.97%
27,COc1ccc([N+](=O)[O-])cc1N(CC(O)CN(C)C)S(=O)(=O)c1ccc(C)cc1 (centres unmarked),-41.8%

row,Compound,"hERG current change (%, negative = inhibition) at 10uM"
1,O=C(c1ccc(COc2ccccc2Br)cc1)N1CCCCC1,-8.54%
2,O=C(O)C(F)(F)F.O=C1C(Cc2ccccc2)Nc2ncnc(N3CCCCC3)c2N1Cc1ccc(Cl)cc1 (centres unmarked),-8.17%
3,COc1ccc(N(CC(=O)Nc2ccccc2C(=O)N2CCCC2)S(C)(=O)=O)cc1,27.7%
4,COc1cc(N)c(Br)cc1C(=O)O,11.8%
5,CC(=O)Nc1ccc(S(=O)(=O)NCC2CCC(C(=O)N3CC(C)CC(C)C3)CC2)cc1 (centres unmarked),5.39%
6,O=c1c2ccccc2nc(/C=C/c2ccco2)n1-c1ccccc1O,-13.3%
7,Cc1ccc(NC(=S)N(Cc2ccccc2)Cc2cccs2)c(C)c1,10.3%
8,CN1CCN(C(=O)/C(=C\c2cccs2)NC(=O)c2ccccc2)CC1,-75.3%
9,NC(=O)NOCc1c(F)cccc1Cl,19.3%
10,Cn1c(CNC(=O)CNC(=O)Cc2ccc(F)cc2)cc(=O)n(C)c1=O,21.8%
11,CCCCOc1ccc(C(=O)NCC(=O)NCCOc2ccc(C)cc2)cc1,6.35%
12,Cc1cc(C)n(CC(=O)c2ccc(Cl)cc2)n1,17.2%
13,COc1ccc(C(=O)Nc2ccccc2C(=O)NC(Cc2ccc(O)cc2)C(=O)NNC(=O)c2ccncc2)cc1 (centres unmarked),7.99%
14,CCc1nc(SCc2ccc(Br)cc2)n[nH]1,10.2%
15,Cc1ccsc1C(=O)Nc1ccc(C(=O)O)cc1,0.621%
16,O=C(COc1coc(CN2CCc3ccccc3C2)cc1=O)Nc1cccc([N+](=O)[O-])c1,2.89%
17,CC[C@H]1OC(=O)[C@H](C)[C@@H](O[C@H]2C[C@@](C)(OC)[C@@H](O)[C@H](C)O2)[C@H](C)[C@@H](O[C@@H]2O[C@H](C)C[C@H](N(C)C)[C@H]2O)[C@](C)(O)C[C@@H](C)CN(C)[C@H](C)[C@@H](O)[C@]1(C)O,1.55%
18,Cc1nc2ccccc2c(=O)n1NC(=O)c1ccc(Cl)c([N+](=O)[O-])c1,-6.86%
19,CC(=O)OC(C(=O)NC1CCCCC1)c1ccc(Cl)cc1 (centres unmarked),19.4%
20,O=C(CCc1nc2ccccc2c(=O)[nH]1)Nc1cc(C(F)(F)F)ccc1N1CCOCC1,-35.3%
21,COc1ccc(C2C(C(=O)NCC3CCCO3)CCC(=O)N2c2ccc3c(c2)OCO3)cc1 (centres unmarked),-3.58%
22,Nc1ccc(Cc2nc3c(ccc4ccccc43)[nH]2)cc1,-7.64%
23,CCOC(=O)CNC(=O)N1CCc2ccc(NC(=O)c3ccccc3Cl)cc2C1,-0.885%
24,CCCn1c(SCC(N)=O)nnc1C(C)C,14.7%
25,CCOC(=O)C1CCN(Cc2ccccc2C)CC1,0.665%
26,O=C(COC(=O)c1cccc(Br)c1)NCCc1ccc(F)cc1,-0.0664%

# Reference: paper PMC4336329 (PLoS ONE, 2015)
